{
  "source": "PubChem BioAssay AID588591",
  "about": "(National Center for Advancing Translational Sciences (NCATS), 2011)",
  "note": "The campaign covered roughly 390,000 compounds. About 4,700 (1.2%) were called active. The inconclusive results got no clear call from the source; some entries with a clear call stand among them for comparison. Calls come from the whole dose curve; as a rule, active = well fitted inhibition curve with a large enough effect; inconclusive = small, poorly fitted or top-dose-only effect, or another doubt; inactive = no such curve, though single readings can be large or run the other way. Potencies of inconclusive entries are doubtful fits and often do not repeat. Potency is the fitted concentration of half-maximal effect; tags give direction and shape of the fitted curve.",
  "data": [
    {"biological_target": "DNA polymerase eta (Homo sapiens) (UniProt Q9Y253)", "sequence (Q9Y253 whole entry, looked up)": "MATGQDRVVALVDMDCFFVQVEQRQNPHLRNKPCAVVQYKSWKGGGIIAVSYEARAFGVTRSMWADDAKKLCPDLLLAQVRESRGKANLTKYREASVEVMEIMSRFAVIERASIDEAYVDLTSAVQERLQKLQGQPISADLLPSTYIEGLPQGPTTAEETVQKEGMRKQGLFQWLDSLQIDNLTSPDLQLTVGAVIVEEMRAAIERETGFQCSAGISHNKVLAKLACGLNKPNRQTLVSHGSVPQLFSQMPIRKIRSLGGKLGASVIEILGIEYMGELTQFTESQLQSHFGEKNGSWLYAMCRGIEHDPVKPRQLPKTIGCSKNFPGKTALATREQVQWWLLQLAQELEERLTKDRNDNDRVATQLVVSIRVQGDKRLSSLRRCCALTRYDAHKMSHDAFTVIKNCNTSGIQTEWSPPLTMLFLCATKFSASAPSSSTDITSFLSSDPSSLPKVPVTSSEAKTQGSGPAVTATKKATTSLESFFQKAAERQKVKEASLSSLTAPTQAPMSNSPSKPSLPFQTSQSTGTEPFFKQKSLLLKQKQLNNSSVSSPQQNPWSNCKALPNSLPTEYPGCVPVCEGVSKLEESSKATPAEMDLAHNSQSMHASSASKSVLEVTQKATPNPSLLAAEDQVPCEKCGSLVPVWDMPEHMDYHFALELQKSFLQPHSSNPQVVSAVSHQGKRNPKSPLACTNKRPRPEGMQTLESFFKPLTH", "test": "qHTS for Inhibitors of Polymerase Eta", "details": "recombinant Pol eta, fluorescent DNA replication assay; series mostly up to 114 µM", "in_short": "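Fluorescent replication assay: 50 nM final substrate added after a 15 min room-temperature compound preincubation with 10 nM enzyme. Signal taken at 0 min and again at 10 min.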", "values": [
      {"smiles": "C/C(=N\\NC(=O)COc1ccccc1[N+](=O)[O-])c1cccc(NC(=O)c2ccncc2)c1", "Potency": "inconclusive: 28.2 µM [inhibitor, single point]"},
      {"smiles": "CCc1cccc(N2C(=O)N(Cc3c(F)cccc3Cl)c3ccccc3S2(=O)=O)c1", "Potency": "inconclusive: 79.4 µM [inhibitor, partial curve, poor fit]"},
      {"smiles": "CC1(C)C(=O)Nc2ccccc2N1C(=O)COc1ccc(C#N)cc1", "Potency": "inconclusive: 31.6 µM [inhibitor, full curve]"},
      {"smiles": "O=C(CCSCCC(=O)NCc1ccc(F)cc1)NCc1ccc(F)cc1", "Potency": "inconclusive: 35.5 µM [inhibitor, single point]"},
      {"smiles": "NS(=O)(=O)c1ccc(NCCCn2ccnc2)c([N+](=O)[O-])c1", "Potency": "inactive"},
      {"smiles": "Cc1csc2nc(COC(=O)c3cccc(N(C)C)c3)cc(=O)n12", "Potency": "inconclusive: 31.6 µM [inhibitor, single point]"},
      {"smiles": "COc1ccc2c(CC(=O)Nc3ccc(OC)c(NS(=O)(=O)c4ccc(F)cc4)c3)coc2c1", "Potency": "inconclusive: 44.7 µM [inhibitor, partial curve, poor fit]"},
      {"smiles": "COc1ccc(S(=O)(=O)C(C#N)c2nc3ccccc3nc2N2CCCCC2)cc1", "note": "(configuration not stated)", "Potency": "inconclusive: 22.4 µM [inhibitor, single point]"},
      {"smiles": "O=C(COC(=O)c1ccc([N+](=O)[O-])s1)Nc1ccccc1", "Potency": "inconclusive: 56.2 µM [inhibitor, partial curve, poor fit]"},
      {"smiles": "Cc1ccc(-n2cccc2C(=O)NS(=O)(=O)c2ccc(C)cc2)cc1", "Potency": "inconclusive: 89.1 µM [inhibitor, partial curve, poor fit]"},
      {"smiles": "CCOC(=O)C1CCCN(C(=O)CSc2nnc3nc(C)cc(C)n23)C1", "note": "(configuration not stated)", "Potency": "inconclusive: 31.6 µM [inhibitor, single point]"},
      {"smiles": "COc1cc(NC(=S)NCCC(c2ccccc2)c2ccccc2)cc(OC)c1", "Potency": "inconclusive: 89.1 µM [inhibitor, single point]"},
      {"smiles": "Cc1ccc(OCCC(=O)NNC(=O)c2nn(C)c(=O)c3ccccc23)cc1", "Potency": "inactive"},
      {"smiles": "O=C(Nc1ccccc1)Nc1cc(OCC(F)(F)F)cc(OCC(F)(F)F)c1", "Potency": "inactive"},
      {"smiles": "O=Nc1[nH]c(=O)c(/C=C(\\O)c2ccccc2)nc1NO", "Potency": "inconclusive: 39.8 µM [inhibitor, single point]"},
      {"smiles": "O=C1C(NS(=O)(=O)c2ccc(Cl)cc2)=C(N2CCCCC2)C(=O)c2ccccc21", "Potency": "inconclusive: 35.5 µM [inhibitor, partial curve, poor fit]"},
      {"smiles": "CCc1nnc(NS(=O)(=O)c2ccc(NC(=O)c3ccccc3C)cc2)s1", "Potency": "inactive"},
      {"smiles": "COc1ccc(C(CNC(=O)Cc2ccccc2F)N2CCCCC2)cc1", "note": "(configuration not stated)", "Potency": "inconclusive: 89.1 µM [inhibitor, partial curve, poor fit]"},
      {"smiles": "O=C(C=Cc1ccccc1O)c1ccccc1O", "Potency": "inconclusive: 44.7 µM [inhibitor, partial curve, poor fit]"},
      {"smiles": "CCN(CC(=O)NC(C)(C)C)Cc1cc(=O)n2c(-c3ccccc3)csc2n1", "Potency": "inconclusive: 20 µM [inhibitor, full curve]"},
      {"smiles": "O=C(NNC(=O)c1ccc(-c2ccc([N+](=O)[O-])cc2)o1)c1ccncc1", "Potency": "inconclusive: 89.1 µM [inhibitor, partial curve]"},
      {"smiles": "CC(=O)N1CCCc2cc(S(=O)(=O)N(Cc3ccccc3)C(C)C)ccc21", "Potency": "inconclusive: 100 µM [inhibitor, partial curve, poor fit]"},
      {"smiles": "O=C(N/N=C/C=C\\c1ccccc1[N+](=O)[O-])c1cc(-c2ccc3ccccc3c2)n[nH]1", "Potency": "inconclusive: 39.8 µM [inhibitor, partial curve]"},
      {"smiles": "Cc1ccc(NC(=O)C(C)OC(=O)c2nc(Cl)ccc2Cl)cc1S(=O)(=O)N1CCOCC1", "note": "(configuration not stated)", "Potency": "inconclusive: 56.2 µM [inhibitor, partial curve, poor fit]"},
      {"smiles": "Cc1ccccc1NC(=O)CSc1nnc(-c2ccco2)c(-c2ccco2)n1", "Potency": "active: 50.1 µM"},
      {"smiles": "COc1cc2c(=O)c(S(=O)(=O)c3ccccc3)cn(CC(=O)Nc3ccccc3C)c2cc1OC", "Potency": "inconclusive: 79.4 µM [inhibitor, partial curve, poor fit]"},
      {"smiles": "Cc1sc2ncn(CCn3cnc4sc(C)c(C)c4c3=O)c(=O)c2c1C", "Potency": "inconclusive: 17.8 µM [inhibitor, single point]"},
      {"smiles": "CCc1nc2sc3c(Cl)ncnc3c2c2c1CCCC2", "Potency": "inconclusive: 89.1 µM [inhibitor, partial curve, poor fit]"},
      {"smiles": "CC(C)NC[C@@H](O)c1ccc(O)c(O)c1", "Potency": "inconclusive: 89.1 µM [inhibitor, partial curve, poor fit]"},
      {"smiles": "CCOC(=O)c1cc(-c2ccc([N+](=O)[O-])cc2)nc2c1c(=O)[nH]c(=O)n2Cc1ccccc1", "Potency": "active: 44.7 µM"},
      {"smiles": "Cc1cc(NC2=CC(=O)C(=O)c3ccccc32)no1", "Potency": "active: 22.4 µM"},
      {"smiles": "Cc1ccc(S(=O)(=O)N2CCC(C(=O)N[C@@H](C)C(=O)NCc3ccco3)CC2)cc1", "Potency": "inconclusive: 28.2 µM [inhibitor, partial curve]"},
      {"smiles": "O=C(NCc1cccnc1)c1ccc(NS(=O)(=O)c2ccccc2)cc1", "Potency": "inactive"},
      {"smiles": "COc1ccc(/C=C2\\C(=O)N(c3c(Cl)cc(Cl)cc3Cl)N=C2NC(=O)c2cccc([N+](=O)[O-])c2)cc1", "Potency": "inconclusive: 44.7 µM [inhibitor, partial curve, poor fit]"},
      {"smiles": "CC(=O)C1=C(C)OC2(O)c3ccccc3C(=O)C12O", "note": "(configuration not stated)", "Potency": "active: 79.4 µM"},
      {"smiles": "Nc1c(C(O)(C(F)(F)F)C(F)(F)F)cc(C(O)(C(F)(F)F)C(F)(F)F)c2ccccc12", "Potency": "inconclusive: 20 µM [inhibitor, partial curve, poor fit]"},
      {"smiles": "CC(=O)OCCNc1cc(Sc2nc3ccccc3[nH]2)c2nonc2c1[N+](=O)[O-]", "Potency": "inconclusive: 25.1 µM [inhibitor, single point]"},
      {"smiles": "O=[N+]([O-])c1ccc(C=Nc2cccc3ccccc23)s1", "Potency": "inconclusive: 56.2 µM [inhibitor, partial curve, poor fit]"},
      {"smiles": "COc1ccccc1C(OC(=O)c1cccs1)C(=O)NCc1ccco1", "note": "(configuration not stated)", "Potency": "inconclusive: 89.1 µM [inhibitor, partial curve]"},
      {"smiles": "O=C(ONC(=O)C1CCCCC1C(=O)NOC(=O)c1ccccc1)c1ccccc1", "note": "(configuration not stated)", "Potency": "inactive"},
      {"smiles": "CCOC(=O)c1c(C)[nH]c(CCC(=O)NCc2ccccc2C)c1C", "Potency": "inactive"},
      {"smiles": "CCOc1cc(/C=N/NC(=O)c2ccc(-c3csc(Nc4ccc(C)cc4)n3)cc2)ccc1OCC(=O)O", "Potency": "active: 17.8 µM"},
      {"smiles": "Cc1ccccc1-n1nc2c(c1NC(=O)c1ccc(Br)o1)CSC2", "Potency": "inconclusive: 15.8 µM [inhibitor, full curve, poor fit]"},
      {"smiles": "Cc1onc(-c2ccccc2Cl)c1C(=O)NCCn1c(C)cc2ccccc21", "Potency": "inconclusive: 79.4 µM [inhibitor, partial curve, poor fit]"},
      {"smiles": "O=C1c2ccccc2C(=O)c2c(/C=C/N3CCCCC3)ccnc21", "Potency": "inconclusive: 22.4 µM [inhibitor, partial curve]"},
      {"smiles": "O=C(COC(=O)c1ccccc1NC(=O)c1ccco1)NC1CC1", "Potency": "inconclusive: 100 µM [inhibitor, partial curve, poor fit]"},
      {"smiles": "O=C(OCC(=O)N1CCN(C(=O)c2ccco2)CC1)c1cc(-c2ccco2)nc2ccccc12", "Potency": "active: 31.6 µM"},
      {"smiles": "CC1C(=O)N(Cc2cn(CCC3OCCO3)nn2)CCS(=O)(=O)N1Cc1ccc(-c2ccc(Cl)c(Cl)c2)cc1", "note": "(configuration not stated)", "Potency": "inconclusive: 79.4 µM [inhibitor, partial curve, poor fit]"},
      {"smiles": "CC1=C[C@H]2Cc3cc(C)cc(C)c3S(=O)(=O)[C@@H]2C=C1", "Potency": "inconclusive: 39.8 µM [inhibitor, partial curve, poor fit]"},
      {"smiles": "COc1cc(OC)cc(C(=O)N/N=C\\c2ccoc2)c1", "Potency": "inconclusive: 56.2 µM [inhibitor, partial curve, poor fit]"},
      {"smiles": "CC(C)(C)N(Cc1ccccc1)C(=O)COC(=O)c1ccc(S(=O)(=O)N2CCOCC2)cc1", "Potency": "inconclusive: 44.7 µM [inhibitor, partial curve, poor fit]"},
      {"smiles": "COc1ccccc1N(CC(O)Cn1ccnc1C)S(=O)(=O)c1ccc(C)cc1", "note": "(configuration not stated)", "Potency": "inactive"},
      {"smiles": "Cc1cc(=O)oc2cc(O)cc(O)c12", "Potency": "inconclusive: 89.1 µM [inhibitor, partial curve, poor fit]"},
      {"smiles": "Cn1ccsc1=NC(=O)c1ccc(=O)[nH]c1", "Potency": "inactive"},
      {"smiles": "Cc1ccc(OCC(=O)Nc2sc3c(c2C#N)CC(C)(C)NC3(C)C)cc1", "Potency": "inactive"},
      {"smiles": "CCOC(=O)c1c(C(C)(C)C)oc2ccc(O)cc12", "Potency": "inconclusive: 39.8 µM [inhibitor, partial curve, poor fit]"},
      {"smiles": "Cc1cc2oc(=O)cc(CN3CCCCC3C)c2cc1Cl", "note": "(configuration not stated)", "Potency": "inactive"},
      {"smiles": "CCOC(=O)N1CCN(S(=O)(=O)c2ccc(C(=O)N(CCCN(C)C)c3nc4cc(OC)ccc4s3)cc2)CC1", "Potency": "inconclusive: 0.316 µM [inhibitor, full curve, poor fit]"},
      {"smiles": "COc1ccccc1-c1c(C)oc2cc(OCC(=O)OCc3ccccc3)ccc2c1=O", "Potency": "inconclusive: 44.7 µM [inhibitor, partial curve, poor fit]"},
      {"smiles": "O=C(O)c1ccc2c(c1)C(=O)N(Cc1ccc3c(c1)OCO3)C2=O", "Potency": "inactive"},
      {"smiles": "CCCn1c(C)cc(/C=C(\\C#N)C(=O)OCC(=O)Nc2cc(OC)c(OC)c(OC)c2)c1C", "Potency": "inconclusive: 39.8 µM [inhibitor, single point]"},
      {"smiles": "COc1ccc(NC(=O)Nc2nnc(N3CCCCCC3)s2)c(OC)c1", "Potency": "inconclusive: 50.1 µM [inhibitor, partial curve, poor fit]"}
    ]}
  ]
}
